In the antibiotic and cytotoxicity screens of Wong et al. (2023):
This is one part of the list.

What was measured:
[1] = system: HSkMC (human skeletal muscle cells); assay: cytotoxicity call (relative viability < 0.9); settings: 10 µM
[2] = system: HepG2; assay: cytotoxicity call (relative viability < 0.9); settings: 10 µM
[3] = system: S. aureus RN4220; assay: growth inhibition call (relative growth <= 0.2); settings: 50 µM

SMILES | cytotoxicity call [1] | cytotoxicity call [2] | growth inhibition call [3]
CO[C@@H]1CN(C)C(=O)c2cc(NC(=O)Nc3ccccc3F)ccc2OC[C@H](C)N(Cc2ccccc2C(=O)O)C[C@@H]1C | inactive | inactive | inactive
C[C@@H]1CN([C@H](C)CO)C(=O)Cc2cc(NC(=O)CCCCCC(=O)Nc3ccccc3N)ccc2O[C@@H]1CN(C)Cc1ccc(-c2ccccc2)cc1 | active | active | inactive
Cc1ccc(NC(=O)C[C@H]2NCCNC2=O)cc1 | inactive | inactive | inactive
CC(C)NC(=O)N(C)C[C@H]1OCCCC[C@H](C)Oc2ccc(NS(C)(=O)=O)cc2C(=O)N([C@H](C)CO)C[C@@H]1C | inactive | inactive | inactive
COc1cc(OC)c2c(c1)OC(c1ccccc1)CC2=O (stereo not drawn) | inactive | inactive | inactive
COc1ccc(NC(=O)N(C)C[C@@H]2Oc3ccc(NC(=O)Nc4ccc(C(F)(F)F)cc4)cc3C(=O)N([C@H](C)CO)C[C@H]2C)cc1 | inactive | inactive | inactive
CN1C2CCC1CC(OC(c1ccccc1)c1ccccc1)C2.CS(=O)(=O)O (stereo not drawn) | inactive | active | inactive
CO[C@H]1CN(C)C(=O)c2cc(NS(C)(=O)=O)ccc2OC[C@@H](C)N(C(=O)c2ccc3c(c2)OCO3)C[C@@H]1C | inactive | inactive | inactive
C[C@H](CO)N1C[C@H](C)[C@@H](CN(C)C(=O)Nc2ccc3c(c2)OCO3)Oc2ccc(NC(=O)Nc3cccc4ccccc34)cc2C1=O | inactive | inactive | inactive
C[C@@H]1CN([C@@H](C)CO)C(=O)c2cccc(NC(=O)c3ccncc3)c2O[C@H]1CN(C)Cc1ccc2c(c1)OCO2 | inactive | inactive | inactive
C[C@H](CO)N1C[C@H](C)[C@@H](CN(C)C(=O)C2CC2)OCc2cn(nn2)CCCC1=O | inactive | inactive | inactive
Cc1noc(C)c1S(=O)(=O)Nc1ccc2c(c1)CC(=O)N([C@@H](C)CO)C[C@H](C)[C@@H](CN(C)S(=O)(=O)c1ccc(F)cc1)O2 | inactive | inactive | inactive
C[C@H](CO)N1C[C@H](C)[C@H](CN(C)C(=O)CCC(F)(F)F)OCCCC[C@H](C)Oc2ccc(NS(=O)(=O)c3ccc(F)cc3)cc2C1=O | inactive | inactive | inactive
O=C(C[C@H]1C[C@@H]2c3cc(NC(=O)Cc4ccncc4)ccc3O[C@@H]2[C@@H](CO)O1)NCc1ccc2c(c1)OCO2 | inactive | inactive | inactive
O=C(c1cc2n(n1)CCCO2)N1CC(O)C1 | inactive | inactive | inactive
C[C@@H]1CN([C@H](C)CO)C(=O)c2c(c3ccccc3n2C)-c2ccccc2CO[C@@H]1CN(C)S(=O)(=O)c1cn(C)cn1 | inactive | inactive | inactive
COc1ccc(S(=O)(=O)N2C[C@@H](O)COC[C@@H]3O[C@H](CC(=O)NCc4ccc(Cl)c(Cl)c4)CC[C@H]32)cc1 | inactive | inactive | inactive
O=C(c1ccccc1Cl)c1cccnc1-c1nnn(Cc2cc(C(F)(F)F)cc(C(F)(F)F)c2)c1-c1ccncc1 | active | inactive | inactive
COCC(=O)Nc1ccc2c(c1)OC[C@H](C)N(C(=O)Cc1ccccn1)C[C@@H](C)[C@H](OC)CN(C)C2=O | inactive | inactive | inactive
C[C@H]1CN([C@@H](C)CO)C(=O)c2cc(NS(=O)(=O)c3cn(C)cn3)ccc2O[C@H]1CN(C)C(=O)Nc1ccccc1 | inactive | inactive | inactive
Cn1c(=O)c2cc(S(=O)(=O)N3CCOCC3)ccc2n(C)c1=O | inactive | inactive | inactive
C[C@H]1CN([C@@H](C)CO)S(=O)(=O)c2ccc(Br)cc2O[C@@H]1CN(C)C(=O)Cc1cccnc1 | inactive | inactive | inactive
C[C@@H]1CCCCO[C@@H](CN(C)Cc2ccncc2)[C@H](C)CN([C@@H](C)CO)C(=O)c2cc(NC(=O)CCCCCC(=O)Nc3ccccc3N)ccc2O1 | inactive | inactive | inactive
CN(C)CCCCNC(=O)[C@H]1C[C@H]2C(=O)N[C@@H](CCCCN(C)C)C(=O)N2[C@H]1c1cccc(OCCO)c1 | inactive | inactive | inactive
C[C@@H]1CN([C@@H](C)CO)C(=O)c2cccc(NC(=O)Nc3ccc(F)cc3)c2O[C@@H]1CN(C)S(=O)(=O)c1cn(C)cn1 | inactive | inactive | inactive
CC(C)NC(=O)N(C)C[C@@H]1Oc2ccc(NC(=O)NC3CCCCC3)cc2CC(=O)N([C@H](C)CO)C[C@H]1C | inactive | inactive | inactive
